From article PMC3101213
These are yes or no findings as the source states them, for the method shown. For some assays here: Binding seen in cells or lysates may run through a third protein. Some binding calls cover weakened binding; strength is not graded here. For some assays here: Sequences can lack the tags named with a protein.

Sequences of proteins named here, by UniProt entry; tags and fusion partners are left off. A change or cut given only in a name is not applied to a line headed by its entry. Residues count along the entry.
UniProt P03372: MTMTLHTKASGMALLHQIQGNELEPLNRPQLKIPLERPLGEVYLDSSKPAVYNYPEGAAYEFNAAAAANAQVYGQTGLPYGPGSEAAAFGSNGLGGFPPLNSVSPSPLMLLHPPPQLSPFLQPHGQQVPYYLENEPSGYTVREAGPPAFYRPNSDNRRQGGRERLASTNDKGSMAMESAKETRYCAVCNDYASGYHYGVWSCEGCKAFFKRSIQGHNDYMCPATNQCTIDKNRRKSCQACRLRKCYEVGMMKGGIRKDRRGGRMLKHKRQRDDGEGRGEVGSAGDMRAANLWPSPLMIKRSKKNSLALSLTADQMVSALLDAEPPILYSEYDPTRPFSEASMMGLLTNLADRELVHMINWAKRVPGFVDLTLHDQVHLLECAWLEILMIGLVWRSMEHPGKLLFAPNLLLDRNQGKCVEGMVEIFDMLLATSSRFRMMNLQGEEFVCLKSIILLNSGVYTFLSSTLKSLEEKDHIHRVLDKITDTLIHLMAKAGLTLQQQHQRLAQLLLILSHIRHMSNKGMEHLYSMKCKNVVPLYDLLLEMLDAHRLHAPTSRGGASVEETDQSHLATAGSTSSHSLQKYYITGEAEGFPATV
GST-ERα(180–282), containing the DBD: residues 180-282 of P03372
UniProt Q92731: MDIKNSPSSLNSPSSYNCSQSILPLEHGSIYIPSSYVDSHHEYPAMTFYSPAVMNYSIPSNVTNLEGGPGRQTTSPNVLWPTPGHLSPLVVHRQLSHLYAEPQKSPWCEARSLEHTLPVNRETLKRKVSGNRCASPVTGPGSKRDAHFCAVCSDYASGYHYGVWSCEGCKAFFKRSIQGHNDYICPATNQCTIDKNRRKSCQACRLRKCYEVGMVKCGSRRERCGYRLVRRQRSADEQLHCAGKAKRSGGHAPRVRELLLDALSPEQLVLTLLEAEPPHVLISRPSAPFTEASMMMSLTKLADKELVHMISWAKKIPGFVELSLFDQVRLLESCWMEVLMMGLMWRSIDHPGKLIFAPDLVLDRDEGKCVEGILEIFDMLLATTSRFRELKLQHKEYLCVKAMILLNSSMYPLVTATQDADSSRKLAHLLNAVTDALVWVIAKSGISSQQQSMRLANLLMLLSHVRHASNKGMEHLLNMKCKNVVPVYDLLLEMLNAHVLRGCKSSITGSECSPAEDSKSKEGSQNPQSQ

Tests used:
[1] = target: T1, GST-CTGF(182–349), containing the TSP-1 and CT domains (human) (UniProt P29279); assay: pull-down; purified GST-CTGF fragments bound to glutathione-Sepharose beads incubated with 35S-labelled in vitro translation products; SDS-PAGE and autoradiography; only the target purified
T1 sequence: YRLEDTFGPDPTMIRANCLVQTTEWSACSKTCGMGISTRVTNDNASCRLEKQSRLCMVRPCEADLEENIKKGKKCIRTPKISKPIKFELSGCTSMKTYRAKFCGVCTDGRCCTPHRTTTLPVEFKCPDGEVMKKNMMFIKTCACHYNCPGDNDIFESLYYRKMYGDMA

[2] = target: T2, GST-CTGF(244–349), containing the CT domain (human) (UniProt P29279); assay: as above
T2 sequence: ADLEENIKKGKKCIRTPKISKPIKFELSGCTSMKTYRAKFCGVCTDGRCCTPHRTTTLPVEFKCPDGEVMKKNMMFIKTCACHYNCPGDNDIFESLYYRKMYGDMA

[3] = target: GST-CTGF(27–187), containing the IGFBP and VWC domains but lacking the signal peptide (human) (UniProt P29279); assay: as above
[4] = target: T3, GST-CTGF(182–250), containing the TSP-1 domain (human) (UniProt P29279); assay: as above
T3 sequence: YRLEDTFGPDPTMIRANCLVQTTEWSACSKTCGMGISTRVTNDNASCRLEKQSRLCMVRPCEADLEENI

[5] = target: GST-ERα(180–282), containing the DBD (UniProt P03372); assay: pull-down; purified GST fusion protein bound to glutathione-Sepharose beads incubated with purified His-fusion proteins; Western blot with anti-His; both purified
GST-ERβ = GST-ERβ (UniProt Q92731); assay: as above
GST-ERα = GST-ERα (UniProt P03372); assay: as above
[6] = target: FLAG-tagged CTGF (full-length CTGF with FLAG at the carboxyl terminus) (human) (UniProt P29279); assay: co-IP; conditioned medium of CTGF-FLAG-transfected MCF7 cells incubated with MCF7 cell lysates, in the presence of E2; lysis buffer 50 mM Tris pH 8.0, 500 mM NaCl, 0.5% Nonidet P-40, 1 mM DTT; IP with anti-FLAG agarose beads, blot with anti-ERα or anti-ERβ
[7] = target: endogenous CTGF of MCF7 cells (human (endogenous in MCF7)) (UniProt P29279); assay: ELISA; wells coated with mouse anti-human CTGF monoclonal antibody; MCF7 cell lysates together with conditioned media incubated 2 h; detection with rabbit anti-human ERα antibody or normal rabbit serum; absorbance at 415 nm

Molecule	binding [1]	binding [3]	binding (GST-ERβ)	binding (GST-ERα)	binding [6]	also measured
35S-labelled in vitro translated ERα (from UniProt P03372 1-595)	binds	no binding				binding [2]: no binding; binding [4]: binds
35S-labelled in vitro translated ERβ (from UniProt Q92731 1-530)	binds weakly	no binding				
His-tagged CTGF (from UniProt P29279 27-349)			binds	binds		binding [5]: binds
endogenous estrogen receptor α (ERα) of MCF7 cells (from UniProt P03372 1-595)					binds	binding [7]: binds
endogenous estrogen receptor β (ERβ) of MCF7 cells (from UniProt Q92731 1-530)					binds	
His-tagged Nov (nephroblastoma overexpressed), another CCN family member (protein, UniProt P48745 32-357) TQRCPPQCPGRCPATPPTCAPGVRAVLDGCSCCLVCARQRGESCSDLEPCDESSGLYCDRSADPSNQTGICTAVEGDNCVFDGVIYRSGEKFQPSCKFQCTCRDGQIGCVPRCQLDVLLPEPNCPAPRKVEVPGECCEKWICGPDEEDSLGGLTLAAYRPEATLGVEVSDSSVNCIEQTTEWTACSKSCGMGFSTRVTNRNRQCEMLKQTRLCMVRPCEQEPEQPTDKKGKKCLRTKKSLKAIHLQFKNCTSLHTYKPRFCGVCSDGRCCTPHNTKTIQAEFQCSPGQIVKKPVMVIGTCTCHTNCPKNNEAFLQELELKTTRGKM			no binding	no binding		
